# PubChem BioAssay AID1508623 (National Center for Advancing Translational Sciences (NCATS), 2021)
# Among all 48,000 compounds or so, about 450 (0.94%) were called active. Another 19% or so got no clear call; they are omitted. The call rests on the fitted dose curve; in most records, active means well fitted inhibition curve with a large enough effect; inconclusive means small, poorly fitted or top-dose-only effect; inactive means no such curve, though single readings can be large or run the other way. Some of the results follow.
# Experiment: Primary qHTS for Identification of Small Molecule Inhibitors of Huntingtin Promoter Activity; further: nearly all actives have a fitted effect of over 50% in size
# Conditions: HEK293 HTT promoter firefly luciferase reporter (activity 0% = vehicle and -100% = no light), 24 h; series mostly up to 57.5 µM; activity change, negative = inhibition: at the top concentration
# Summary of the method: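 Firefly luciferase readout (Dual-Glo, 10 min RT) after 24 h, 37 °C compound exposure (final up to 57.5 uM) of HEK293 reporter cells cultured 24 h beforehand; PTC124 at 50 uM final as control inhibitor; activity scaled vehicle 0%, zero RLU -100%.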
# Potency means the concentration at half of the fitted maximal effect.
Compound,"activity change, negative = inhibition",Potency
CCOc1ccc2nc(N3CCC(C(=O)Nc4ccc(Br)cc4F)CC3)sc2c1,inactive: 7.41%,
CCCNC(=O)c1c(NC(=O)c2ccc(C)cc2)sc2c1CCCCC2,inactive: -1.01%,
CC(=O)N1CCOc2cc(S(=O)(=O)Nc3cc(C(F)(F)F)ccc3Cl)c(C)cc21,inactive: 7.97%,
CCSc1ncc(Cl)c(C(=O)N(Cc2ccc(C(C)(C)C)cc2)C2CCS(=O)(=O)C2)n1 (configuration not stated),inactive: -27.1%,
COc1ccc2c(c1)c1c(c(=O)n(Cc3ccccc3)c(=O)n1Cc1ccccc1)n2C,inactive: -2.47%,
CCOC(=O)c1c(C)oc2nc(C)nc(NCCCN3CCN(c4cc(Cl)ccc4C)CC3)c12,inactive: 5.62%,
O=C(CCCN1CCC(O)(c2cccc(C(F)(F)F)c2)CC1)c1ccc(F)cc1,inactive: -10.7%,
Cc1ccc(-c2noc(-c3nnn(CC(=O)Nc4cccc(C(F)(F)F)c4)c3N)n2)cc1,inactive: 18.7%,
Cc1ccc(C(=O)NCC(=O)OCc2cc(=O)n3nc(C4CC4)sc3n2)cc1,inactive: -10.3%,
COc1ccc(S(=O)(=O)Cc2ccc(C(=O)N3CCN(c4cc(C)ccc4C)CC3)o2)cc1,inactive: -16.6%,
O=C(O)c1cccnc1SCc1cccc(Cl)c1,inactive: 0.16%,
O=C(Nc1cccc(-c2nc3ccccc3[nH]2)c1)c1c(F)cccc1F,inactive: 17.9%,
Cc1cccc(OCCSc2nc3ccccc3n2CC(=O)N2CCOCC2)c1C,inactive: -31.3%,
CCOc1ccc(S(=O)(=O)Nc2ccc(OC)c(Cl)c2)c2cccnc12,inactive: -23.9%,
Cc1ccc(NC(=O)C2CCCN(S(=O)(=O)c3c(C)nn(C)c3C)C2)c(C)c1 (configuration not stated),inactive: -18.5%,
CCOc1ccc(C2C(C(N)=O)=C(C)Nc3nc(-c4cccc(Cl)c4)nn32)cc1OC (configuration not stated),inactive: -29.3%,
CC[C@@H]([C@H](C)O)n1ncn(-c2ccc(N3CCN(c4ccc(OCC5CO[C@@](Cn6cncn6)(c6ccc(F)cc6F)C5)cc4)CC3)cc2)c1=O (some centres not stated),inactive: -21%,
CCN1C(=O)c2ccccc2S(=O)c2ccc(C(=O)NCc3ccccc3OC)cc21 (configuration not stated),inactive: -17.6%,
O=C(O)c1c2c(nc3ccc(S(=O)(=O)N4CCC(C(=O)NCc5ccc(Cl)cc5)CC4)cc13)CCCC2,inactive: -2.47%,
CCCCCOc1ccc(NC(=O)Cn2c(-c3cncs3)nc3ccccc32)cc1,inactive: -28.6%,
COc1ccc(S(=O)(=O)NCC(c2ccco2)N2CCN(c3ccccc3F)CC2)cc1C (configuration not stated),inactive: -29.8%,
COc1cc(/C=C/c2nc3cc(Cl)ccc3c(=O)n2-c2ccc(C)cc2C)cc(OC)c1OC,inactive: -24.4%,
CSc1ccc(NC(=O)Cn2nnnc2-c2ccccc2F)cc1,inactive: 6.66%,
CCOC(=O)c1c(C)oc2nc(C)nc(N3CCN(c4cccc(C)c4C)CC3)c12,inactive: 9.01%,
CCc1cccc(NC(=O)c2cccc3c2C(=O)N(C2CCCCC2)C3)c1,inactive: 4.51%,

Compound,"activity change, negative = inhibition",Potency
O=C(NCC(c1cccnc1)N1CCc2ccccc21)C(=O)Nc1ccccc1F (configuration not stated),inactive: -21.2%,
CC(NC(=O)c1cc(-c2ccc(Cl)cc2)on1)c1ccccc1 (configuration not stated),inactive: 2.36%,
CCOC(=O)c1nnn(CC(=O)NC(=O)Nc2ccc(F)cc2)c1C(=O)OCC,inactive: -15.9%,
CC1Cn2cc(C(=O)Nc3ccccc3C(F)(F)F)c(=O)c3c(Cl)ccc(c32)O1 (configuration not stated),inactive: -12%,
Cc1oc2ncn(CC(C)C)c(=O)c2c1C(=O)N(Cc1ccccc1)C(C)C,inactive: -22.1%,
CN(C)c1ccccc1CN1CCCN(Cc2ccccc2N(C)C)C1c1ccncc1,inactive: -4.32%,
O=c1c2ccccc2nc2n1CCc1c-2[nH]c2ccccc12,inactive: 19.6%,
COc1cc(OC)c(NC(=O)c2cn(C)c(=O)c3cc(OC)c(OC)cc23)cc1Cl,inactive: -4.43%,
O=C(/C=C/c1ccccc1)N1CCN(Cc2cc(=O)n3nc(-c4ccccc4Cl)sc3n2)CC1,inactive: -23.6%,
c1ccc(CNCCNCc2ccccc2)cc1,inactive: 4.87%,
O=C(CN1C(=O)C2(SCC(=O)N2c2ccc(Cl)cc2)c2ccccc21)NCCc1ccccc1 (configuration not stated),inactive: -20.8%,
COc1ccc(Cl)cc1NS(=O)(=O)c1c(C)[nH]c(=O)[nH]c1=O,inactive: -0.15%,
COc1ccc(Cl)cc1NC(=O)c1c(NCc2cccs2)sc2c1CCCC2,inactive: -8.98%,
Cc1cccc(-n2ncc(C(=O)Nc3ccc4c(c3)OCO4)c2C2CCN(C(=O)OC(C)(C)C)CC2)c1,inactive: 14%,
CN(C)c1ccc(NC(=O)CSC2=Nc3ccccc3C3=NC(CC(=O)NCc4ccc5c(c4)OCO5)C(=O)N23)cc1 (configuration not stated),inactive: 2.41%,
Cc1ccc(S(=O)(=O)Nc2c(C)nc3nc(C)[nH]n3c2=O)c(C)c1,inactive: -12.1%,
Oc1ccc(NCc2ccccc2OCc2ccccc2Cl)cc1,inactive: -18.5%,
CC(C)C(=O)c1cc2c(cc1NC(=O)c1ccccc1F)OCCO2,inactive: -14.7%,
Cc1ccc(NC(=O)Cn2cnc3c(oc4ccccc43)c2=O)cc1,inactive: 20.1%,
Cc1ccc(COc2cccc3cc(-c4noc(-c5ccc(C)cc5)n4)c(=O)oc23)cc1,inactive: -0.98%,
Cc1ccc(C(=O)c2oc3ccccc3c2NC(=O)COc2ccc(C(C)(C)C)cc2)cc1,inactive: 9.33%,
COC(=O)c1ccc(NC(=O)CSc2nc3c(c(=O)n(C)c(=O)n3C)n2Cc2ccccc2)cc1,inactive: -5.3%,
COc1ccc(C(=O)NCc2nnc(SCC(=O)Nc3ccc(F)cc3)n2-c2ccccc2)cc1,inactive: -21.5%,
CC(=O)N1CCc2cc(S(=O)(=O)CCC(=O)N3CCN(c4ccccc4F)CC3)ccc21,inactive: -21.8%,
Cc1cc(Nc2ccc(Cl)cc2)n2cnnc2n1,inactive: -6.32%,

Compound,"activity change, negative = inhibition",Potency
COc1ccccc1Cc1nc2ccccc2nc1SCC(=O)N1CCCc2ccccc21,inactive: -3.18%,
Cc1ccccc1-c1noc(-c2cc(C(C)C)[nH]n2)n1,inactive: 51.2%,
CCN(CC)S(=O)(=O)c1ccc(C(=O)O)cc1,inactive: -4.58%,
COc1ccc(-c2nnc(SCC(=O)c3ccc([N+](=O)[O-])cc3)o2)cc1OC,inactive: 0.742%,
Cc1ccc(-n2c(SCc3ccccc3C)nc3[nH]ncc3c2=O)cc1C,inactive: -17.6%,
Cc1cccn2c(=O)c3cc(C(=O)NC(C)c4ccccc4)c(=N)n(CCOCCO)c3nc12 (configuration not stated),inactive: -0.902%,
CCOC(=O)c1cc(OC(=O)c2cccc(F)c2)n(-c2ccccc2)n1,inactive: -15%,
Cc1ccccc1-c1noc(-c2ccc(N3CCCC3)c([N+](=O)[O-])c2)n1,,active: 10 µM
CCOc1ccc(N(C(=O)c2ccc(OC)cc2)S(=O)(=O)c2ccc3c(c2)n(C)c(=O)n3C)cc1,inactive: -13.5%,
O=C(NCc1cccnc1)C1CCN(Cc2cc3ccccc3n2Cc2ccccc2)CC1,inactive: -16.4%,
CCC(=O)OC1=CN(Cc2ccccc2)S(=O)(=O)c2ccccc21,inactive: -9.86%,
CC(C)c1ccc(NC(=O)CN2C=NS(=O)(=O)c3ccccc32)cc1,inactive: -10.3%,
CCC(=O)C1=C(c2ccc(F)cc2)N(C(=O)CC)n2c(nnc2C2CCCCC2)S1,inactive: -18.1%,
Cc1cc(C)cc(NC(=O)CSc2nnc(CNC(=O)c3c(F)cccc3Cl)o2)c1,inactive: 0.216%,
CCN(CC)S(=O)(=O)c1ccc2c(c1)N(CC(=O)Nc1c(C)cc(C)cc1C)C(=O)CS2,inactive: -16.3%,
COC(=O)c1cc2oc(C)cc2n1Cc1ccc(C)cc1,inactive: 17.2%,
Cc1cccc(N2CCN(C(=O)CN3C(=O)COc4ccc(S(=O)(=O)N5CCCC5)cc43)CC2)c1C,inactive: -12.6%,
N#C/C(=C\c1c(Oc2ccc(F)cc2)nc2ccccn2c1=O)c1nc2ccccc2s1,inactive: -7.24% [at 11.5 µM],
COCC(=O)O[C@]1(CCN(C)CCCc2nc3ccccc3[nH]2)CCc2cc(F)ccc2[C@@H]1C(C)C,inactive: -19.9%,
O=C1CC(c2ccc(F)cc2)c2c(n3c(nc4ccccc43)[nH]c2=O)N1 (configuration not stated),inactive: -10.3%,
CCCOc1ccc(C(=O)Nc2sc3c(c2C(=O)OCC)CCCCC3)cc1,inactive: -2.83%,
O=C(O)CCCCC1CCSS1 (configuration not stated),inactive: 2.84%,
Cc1oc(-c2cccc(Br)c2)nc1CSc1nc2ncccc2[nH]1,inactive: -25.1%,
O=C(NCc1ccccc1Cl)c1cc(-c2ccccc2)n[nH]1,inactive: 26.3%,
COCCn1c(CCC(=O)Nc2ccc(OC)c(OC)c2)nc2cccnc21,inactive: 9.21%,

Compound,"activity change, negative = inhibition",Potency
O=C(CS(=O)(=O)c1nc(-c2ccc(Cl)cc2)cn1-c1ccccc1)Nc1cccc(Cl)c1,inactive: -26.7%,
O=C(Cn1c2ncccc2c(=O)n1-c1ccccc1)NCc1ccccc1,inactive: -20.5%,
Cc1oc(-c2cccc(Br)c2)nc1CN1CCC(C(=O)NCc2ccccc2)CC1,inactive: -11.8%,
CC(C)NCC(O)c1cc(O)cc(O)c1 (configuration not stated),inactive: -5.57%,
COc1cccc(C2C(C(N)=O)=C(C)Nc3nc(CCCO)nn32)c1 (configuration not stated),inactive: -8.21%,
COc1cccc(CNC(=O)Cc2c(C)c3cc4c(C)coc4cc3oc2=O)c1,inactive: -9.03%,
Cc1cc(C)cc(NC(=O)CSc2nccn2C2CCCC2)c1,inactive: -5.09%,
COc1cccc(NC(=O)c2csc3c2CCCCC3)c1,inactive: 19%,
Cc1ccc(CNCc2ccc3c(c2)n(C)c(=O)n3C)cc1,inactive: -11.9%,
c1ccc(Nc2c(-c3ccccc3)nc3ncccn23)cc1,inactive: -19.1%,
COc1ccc2c(c1)c(=O)c(S(=O)(=O)c1ccc(F)cc1)cn2CC(=O)Nc1ccc(C)cc1C,inactive: -9.64%,
CCN1C(=O)c2ccccc2Sc2ccc(NC(=O)Cc3ccc(OC)c(OC)c3)cc21,inactive: -22.8%,
COc1ccc(CN(C(=O)Nc2cc(C)ccc2C)C2CCN(C(C)=O)CC2)cc1,inactive: -5.84%,
COc1cc(NS(=O)(=O)c2ccc(NC(=O)COc3ccc(Cl)cc3Cl)cc2)nc(OC)n1,inactive: -12.9%,
CCOc1ccc(NC(=O)CSc2nc(-c3ccccc3)c3cc(OCC)ccc3n2)cc1,inactive: 3.62%,
CCOc1ccccc1N(CC)C(=O)Cn1ncc2c1-c1ccccc1OC2,inactive: -39.4%,
O=C(NCc1ccccc1Cl)C(=O)NCC(c1ccc2c(c1)OCO2)N1CCOCC1 (configuration not stated),inactive: -29.5%,
COc1ccc(CNC(=O)c2cnc3sc4cc(OC)ccc4n3c2=O)cc1,inactive: -7.5%,
CCC(CC)C(=O)N1CCc2cc(OC)c(OC)cc2C1COc1ccc2c(C)cc(=O)oc2c1 (configuration not stated),inactive: -13.7%,
CCOc1ccc2nc(N(Cc3cccnc3)C(=O)c3ccco3)sc2c1,inactive: 21.4%,
O=C(c1cc(S(=O)(=O)N2CCCC2)c[nH]1)N1CCN(c2cccc(Cl)c2)CC1,inactive: -16.6%,
CCCSc1ncc(Cl)c(C(=O)NCc2ccc(C)cc2)n1,inactive: -28.4%,
